Reference: the supplement of paper PMC3334620
Over roughly 33,000 sequences, “E-score (-0.5 to 0.5)” has its median near -0.035; the highest 2% begin near 0.35. This is one part of the list.

These sequences were tested against T1, Pdr3 (UniProt P33200) (assay: PBM E-score (8-mer binding enrichment) (E-score (-0.5 to 0.5)); higher = stronger / more preferred TF binding; most listed sequences are background and not binding sites). Details: protein concentration: 200 nM; construct: GST-full length.
T1 sequence: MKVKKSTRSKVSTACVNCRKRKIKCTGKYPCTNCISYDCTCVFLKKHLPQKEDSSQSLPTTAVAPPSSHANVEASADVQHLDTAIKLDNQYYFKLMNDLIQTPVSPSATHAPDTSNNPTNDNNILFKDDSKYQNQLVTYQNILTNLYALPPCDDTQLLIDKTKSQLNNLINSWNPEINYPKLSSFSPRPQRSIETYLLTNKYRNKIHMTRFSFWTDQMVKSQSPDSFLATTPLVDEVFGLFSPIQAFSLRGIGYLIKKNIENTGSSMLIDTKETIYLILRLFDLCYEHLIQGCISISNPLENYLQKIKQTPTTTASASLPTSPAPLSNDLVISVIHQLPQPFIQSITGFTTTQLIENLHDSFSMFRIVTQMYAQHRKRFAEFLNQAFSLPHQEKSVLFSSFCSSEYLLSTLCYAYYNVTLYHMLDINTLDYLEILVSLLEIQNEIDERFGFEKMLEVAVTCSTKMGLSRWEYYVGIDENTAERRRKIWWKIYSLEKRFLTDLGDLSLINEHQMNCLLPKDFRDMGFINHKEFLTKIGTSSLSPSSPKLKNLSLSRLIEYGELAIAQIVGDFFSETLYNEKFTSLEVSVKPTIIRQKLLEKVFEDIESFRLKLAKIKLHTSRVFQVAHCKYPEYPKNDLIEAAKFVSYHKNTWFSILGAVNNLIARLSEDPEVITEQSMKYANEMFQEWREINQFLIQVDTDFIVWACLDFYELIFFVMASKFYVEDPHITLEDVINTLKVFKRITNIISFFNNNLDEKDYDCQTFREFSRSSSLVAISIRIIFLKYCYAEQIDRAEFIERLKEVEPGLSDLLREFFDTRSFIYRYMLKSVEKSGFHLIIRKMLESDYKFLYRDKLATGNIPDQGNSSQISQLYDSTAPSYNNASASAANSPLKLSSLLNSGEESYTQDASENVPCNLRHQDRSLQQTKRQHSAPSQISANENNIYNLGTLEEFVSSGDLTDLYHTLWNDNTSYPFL
In short: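 E-scores (a modified Wilcoxon-Mann-Whitney statistic) were assigned by the Universal PBM Analysis Suite to every ungapped eight-base word pooled with its reverse complement. The input came from universal all-10-mer Agilent arrays made double-stranded by primer extension and probed with GST-tagged yeast transcription factors at about 100-200 nM. Fluorescent anti-GST detected bound protein, and masliner normalised the scans.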

Row | Sequence | PBM E-score
1 | ATTGGAAA | -0.161
2 | AGTAAAAT | -0.11
3 | GCCTAACA | -0.0997
4 | GTACCTTA | -0.00786
5 | CAATGCAA | -0.135
6 | AGCCGCCA | 0.00307
7 | TCACGGAA | 0.464
8 | AAGCATCC | 0.156
9 | CGGGCTCA | -0.0278
10 | CTATTAAG | -0.308
11 | GCACACAA | -0.0438
12 | AAGTGTCA | -0.259
13 | GCTCGTAA | -0.045
14 | GCCACTAA | -0.167
15 | ACTCGGCA | 0.263
16 | ATGATACC | 0.108
17 | AACGCTGC | -0.221
18 | CAAATGTG | 0.11
19 | AGGGAGAT | -0.193
20 | AAGTGAAC | -0.0909
21 | GTGCTCCA | -0.226
22 | ACAAAAGC | -0.105
23 | CCGTACCC | 0.131
24 | CGCCGCCA | 0.142
25 | AAAACCTA | -0.158

Row | Sequence | PBM E-score
26 | GTTTAATA | 0.0237
27 | AAGCCGAA | 0.196
28 | ACTGACTA | -0.231
29 | ACCTCTAT | -0.0654
30 | AATCCAAG | -0.0532
31 | TCCGGACA | 0.447
32 | TACCTATA | -0.293
33 | AAGTAAAA | -0.119
34 | GGTTTCGA | 0.134
35 | ATGGGGAG | -0.155
36 | TATCTAAA | 0.0842
37 | AAAAAGCC | 0.192
38 | AGATTGTA | -0.156
39 | GATCGCGA | 0.183
40 | CTGTACAA | -0.1
41 | TACGGAGA | 0.178
42 | TGACGAAA | -0.112
43 | CCGGTAAG | 0.294
44 | GCGCTCTA | -0.0312
45 | TAACGCGA | -0.0326
46 | AGTAATAG | -0.121
47 | CGATGGCC | -0.0457
48 | CTCGACTA | -0.113
49 | AGGGGCCA | -0.103
50 | CGTAAGCC | -0.0414

Row | Sequence | PBM E-score
51 | GTAGGTGA | -0.263
52 | TCAGATGA | -0.118
53 | ATCTGTAG | -0.15
54 | TACACGGA | 0.3
55 | GCCACAGC | -0.0837
56 | AACTCAAA | -0.0246
57 | AAGCGACG | 0.0395
58 | CAGGGCAC | -0.00368
59 | GCAGTACC | 0.0138
60 | CAAGACCG | -0.0218
61 | ACTGCCTC | -0.00327
62 | CATGAGAC | -0.0869
63 | CTCTGAAG | -0.23
64 | ATCATCCA | -0.0404
65 | TGGCCTAA | -0.223
66 | AACCGTCT | -0.137
67 | TGCATCAA | 0.0784
68 | ATATAAAG | -0.136
69 | GGCGCATA | 0.0934
70 | CCCACTAG | -0.128
71 | GTGAGCTA | -0.138
72 | CACATCGC | -0.0103
73 | AAAACGTC | -0.0442
74 | AAAGCCAC | -0.0196
75 | AGGCCCGC | 0.151

Row | Sequence | PBM E-score
76 | GTCAAAAC | 0.0242
77 | GATAGTAA | 0.0485
78 | TATGTACA | -0.2
79 | AACCATTC | 0.00272
80 | CAATGCCA | -0.0947
81 | CGTTCTTA | 0.159
82 | ACATCGCC | 0.111
83 | CGCCATAC | 0.0216
84 | AGTTTTAT | 0.026
85 | CCGAAGTA | 0.256
86 | TAGAAGAA | -0.144
87 | AATCAACT | 0.0921
88 | CAAATAAC | 0.0456
89 | TGACTGCA | -0.218
90 | CTGGAGAC | -0.137
91 | AAAGGACG | -0.154
92 | AAAAATTG | -0.105
93 | CGACATAG | -0.159
94 | TGGCATAA | -0.035
95 | CGTACGCA | -0.17
96 | TCCTGCAA | -0.12
97 | GGGGCGAC | -0.00808
98 | AGCGAGTA | 0.226
99 | CTGAGACC | -0.0954
100 | GATCTCAA | 0.144

Row | Sequence | PBM E-score
101 | ACTGGCAC | -0.0714
102 | AGTGCCAA | -0.167
103 | GGATGGCC | -0.00764
104 | TATAAATA | 0.208
105 | GGGTTTAC | -0.00165
106 | ATACCTAA | -0.0418
107 | ATACGCCG | 0.155
108 | CATTAGAC | -0.178
109 | GCTCATGA | -0.106
110 | GAGGGGTA | 0.00223
111 | AGAGCGAA | -0.0563
112 | CCCCGTGA | 0.0755
113 | CGCAGGTC | -0.0398
114 | GAGAATAA | -0.083
115 | AAGAAATC | -0.104
116 | AAAGCACA | -0.121
117 | GGTTACAA | -0.00384
118 | AATACATA | -0.0287
119 | AACGGGCG | 0.0106
120 | AACCTGCA | -0.0269
121 | AAACTAGC | -0.159
122 | GGATAAAC | 0.195
123 | ACAACACA | -0.129
124 | CAACCGAA | 0.167
125 | GCGGGTAC | 0.239

Row | Sequence | PBM E-score
126 | ACGGTAAG | 0.0665
127 | AGAATGGC | 0.0693
128 | AGGCAACT | 0.0755
129 | TATCCTCA | -0.11
130 | AAGGGACC | -0.0339
131 | AACGAAAT | 0.0569
132 | AGTTCGAT | -0.0424
133 | AATGGGGG | -0.134
134 | AAGAAAGC | -0.0817
135 | AACTCCGT | 0.271
136 | ACAGCCAT | -0.0801
137 | AATGCGTC | -0.0804
138 | CGGCTACC | 0.242
139 | CTGGCTCC | -0.046
140 | AGAGCCTC | -0.16
141 | GTTCCTTA | -0.111
142 | ACGGGAAG | 0.133
143 | CAGAGTAA | -0.181
144 | CAGAGATA | -0.0613
145 | AACTGTAT | 0.0308
146 | CCTCATAG | -0.0951
147 | CCAGGAAG | -0.235
148 | GCTAGTAC | -0.145
149 | TCATCGCA | -0.145
150 | AGAGGCAG | -0.162

Row | Sequence | PBM E-score
151 | AATAGTGA | -0.137
152 | AGGGAGTG | -0.181
153 | AGCACGTG | -0.113
154 | ACTAGCCC | -0.0838
155 | ACTGCGTG | -0.323
156 | GCAATCTA | -0.0331
157 | GCAGCTCA | -0.123
158 | CAGCGATC | 0.139
159 | TGATAACA | -0.0461
160 | GTCACTCA | 0.0354
161 | CAGGCGGA | 0.344
162 | TAAAGAGA | -0.149
163 | ATCACTAC | -0.118
164 | TGTCTTAA | -0.0565
165 | AGTTCGGA | 0.313
166 | ATTTGCAA | 0.0204
167 | GGAACGCC | 0.278
168 | ACGGCCTG | 0.0213
169 | CCACCTGA | 0.0202
170 | AACACCGC | 0.0385
171 | AAAATCAA | 0.0367
172 | CATCGTGG | -0.036
173 | ACCGTGGG | -0.0668
174 | TGCAGTAA | -0.191
175 | GTCCGGAA | 0.457

Row | Sequence | PBM E-score
176 | ACTAGGCA | -0.293
177 | ACAGAGAT | -0.0971
178 | CACGCACG | 0.0761
179 | ATTGGGTG | 0.18
180 | ATTTTGCC | -0.0613
181 | GACACCAC | -0.0851
182 | AGATAAAT | 0.14
183 | ACGGCAGC | 0.102
184 | CGTAGTGA | -0.0441
185 | ACATACTC | -0.0334
186 | AATGTAGC | -0.115
187 | AGGTCGCA | 0.0949
188 | AGGAGGGA | -0.202
189 | GTTTCAAA | -0.138
190 | CAACGCGC | 0.159
191 | AGCAACAA | -0.0779
192 | ACGGTGAT | -0.0595
193 | ATATTGCG | 0.143
194 | ACTCATTA | -0.0261
195 | ACAGAGCA | -0.00989
196 | GTCCTCGA | -0.0431
197 | AATATCTC | 0.0689
198 | CCACTAAA | -0.056
199 | ACAACGCA | -0.0503
200 | AGTTGGAG | 0.00815

Row | Sequence | PBM E-score
201 | CTGGTCTC | -0.267
202 | GAACTGAC | 0.117
203 | GCAACCAC | 0.145
204 | ACCCATTG | 0.0537
205 | ACGTTGCC | -0.0541
206 | ATCCGTCG | 0.313
207 | TAATCCCA | -0.218
208 | GATTGGAC | -0.0483
209 | CGCCTCAG | 0.0503
210 | ATTTGATC | 0.106
211 | AATACCCC | 0.188
212 | CCTAGAAC | -0.0606
213 | CCTATCTA | -0.226
214 | ATGGAATA | 0.205
215 | AAAACCAG | -0.0562
216 | TACCTAAA | -0.145
217 | GGGCGGAC | 0.373
218 | CTGTGCGC | 0.2
219 | GTTGAAAC | 0.0372
